Source: PubChem BioAssay AID488969 (Vanderbilt High Throughput Screening Facility, 2010)
The full ranking holds about 110,000 compounds; the median of “z-score” is about -0.1, and the highest 2% start at about 2. This is one part of the list. Activity calls are given as the source filed them.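 Rule for the calls: active = z-score in the third read window above 3 or below -3; inactive = the rest.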

molecular target: Metabotropic glutamate receptor 8 (Rattus norvegicus) (UniProt P70579); test: rat mGluR8 modulators via GIRK flux, primary screen, cell-based, thallium flux, HTS (AID 488969); conditions: HEK293 rat mGluR8, GIRK (G protein-gated inwardly rectifying potassium channel) thallium flux, FluoZin2; at 10 µM; stronger effect = higher value; submaximal glutamate (EC20) added with thallium
Chain of UniProt P70579 (P70579 whole entry, looked up): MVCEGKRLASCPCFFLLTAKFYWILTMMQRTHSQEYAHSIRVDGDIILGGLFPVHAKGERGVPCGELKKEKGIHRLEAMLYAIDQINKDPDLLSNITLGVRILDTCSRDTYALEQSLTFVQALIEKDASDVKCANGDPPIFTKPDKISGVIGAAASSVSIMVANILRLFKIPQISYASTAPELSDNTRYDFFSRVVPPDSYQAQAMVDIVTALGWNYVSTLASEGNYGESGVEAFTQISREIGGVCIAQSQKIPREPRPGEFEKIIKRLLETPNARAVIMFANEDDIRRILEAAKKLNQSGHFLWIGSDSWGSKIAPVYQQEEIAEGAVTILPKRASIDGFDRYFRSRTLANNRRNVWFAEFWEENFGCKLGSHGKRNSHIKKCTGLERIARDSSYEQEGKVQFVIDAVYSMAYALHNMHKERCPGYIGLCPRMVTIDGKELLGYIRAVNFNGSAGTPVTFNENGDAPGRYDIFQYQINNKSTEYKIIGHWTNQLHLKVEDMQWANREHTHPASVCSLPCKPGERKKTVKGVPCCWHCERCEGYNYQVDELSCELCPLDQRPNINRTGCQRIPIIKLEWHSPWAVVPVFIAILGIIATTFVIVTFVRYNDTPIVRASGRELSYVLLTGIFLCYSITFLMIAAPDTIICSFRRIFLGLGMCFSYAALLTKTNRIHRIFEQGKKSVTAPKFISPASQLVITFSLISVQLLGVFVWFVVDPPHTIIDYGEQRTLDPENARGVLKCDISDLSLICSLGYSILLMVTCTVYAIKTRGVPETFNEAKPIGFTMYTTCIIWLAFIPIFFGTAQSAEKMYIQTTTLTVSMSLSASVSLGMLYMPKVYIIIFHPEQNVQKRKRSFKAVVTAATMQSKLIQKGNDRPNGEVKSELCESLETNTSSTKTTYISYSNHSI

SMILES	z-score
COc1ccc(-c2cc(C(F)(F)F)nc(-n3cncn3)n2)cc1	0.378
CC1=C(C(N)=O)C(c2ccc(C)o2)C(C(N)=O)=C(C)N1	0.494
CC(C)(C)c1ccc(C(=O)NNc2cc(N3CCCCC3)nc(N3CCCCC3)n2)cc1	-0.139
CNC(=O)C(Sc1nc(C)nc2c1oc1ccccc12)C(C)=O (stereo not given)	0.707
COc1ccccc1NC(=S)N(CCc1c(C)[nH]c2ccccc12)Cc1cccs1	0.381
COc1ccc(OC)c(C2C(C#N)=C(N)Oc3cc(C)[nH]c(=O)c32)c1 (stereo not given)	-0.0524
COc1ccc(C2C3=C(CCCC3=O)Nc3c(-c4ccccc4)c(C)nn32)cc1 (stereo not given)	-0.809
Cc1cc(C)cc(NC(=S)NCc2ccc3c(c2)OCO3)c1	0.0262
O=C(NCc1ccc(Cl)cc1)c1cc(-c2ccco2)on1	0.451
Cc1cccc(Cn2ccc(-c3ccc(Cl)cc3)c(C#N)c2=O)c1	-0.237
CCOC(=O)CP(=O)(c1ccccc1)c1ccccc1	0.215
CCCCNCCCOc1cccc(Cl)c1Cl	1.7
Cc1cc(C(=O)CSc2nc3ccccc3n2C)c(C)n1C	-0.168
CC1(C)CC(=O)C(Sc2nnc(-c3ccc(NS(C)(=O)=O)cc3)n2Cc2ccco2)C(=O)C1	0.0581
Cc1cc(C)nc(NS(=O)(=O)c2ccc(NC(=O)C3CC(=O)N(c4ccccc4)C3)cc2)n1 (stereo not given)	-0.0697
Cc1c(C#N)c2ncn(Cc3ccccc3)c(=O)c2n1-c1ccccc1	-0.85
O=C(O)CCCc1nc2ccccc2s1	0.0725
CSC(=O)CC(=O)NC(=O)c1ccccc1	-0.282
N#Cc1ccc(NC(=O)COC(=O)CSc2nnc(-c3ccc(Cl)cc3)o2)cc1	-0.596
O=C(NCC(c1cccnc1)N1CCN(c2ccccc2)CC1)c1ccco1 (stereo not given)	-0.0332
O=C(Cn1cc([N+](=O)[O-])cn1)N1N=C(C(F)F)CC1(O)C(F)F (stereo not given)	0.0964
O=C(c1ccco1)N1CCC(c2nc(-c3ccc(F)cc3)no2)CC1	-0.112

SMILES	z-score
COc1ccc(CCNC(=O)C23CN(Cc4ccccc4)CC2C(c2ccc([N+](=O)[O-])cc2)=NO3)cc1 (stereo not given)	-0.401
COCc1cc(=O)[nH]c(=S)[nH]1	0.225
CCc1nc2ccccc2n1Cc1ccccc1OC	-0.822
O=S(=O)(Nc1nccs1)c1ccc(NS(=O)(=O)c2cccs2)cc1	0.439
COc1ccc(N/N=C(/C#N)S(=O)(=O)c2nsc(C)c2C#N)cc1	-0.0431
O=C(Nc1nccs1)c1ccc2c(=O)n3c(nc2c1)CCCCC3	-0.461
CCCCNC(=O)c1onc(CSc2ccc(C)c(C)c2)c1C(=O)O	-0.306
Cn1c(=O)[nH]c(=O)c2c1nc(N1CCC(Cc3ccccc3)CC1)n2Cc1ccccc1	0.269
CCN1CCN(CC(=O)Nc2ccc(C)cc2C)C(=O)C1=O	0.235
CN(C)/C=N/c1ncc(C(=O)c2ccccc2)s1	0.0738
O=c1oc2ccccc2c(Nc2ccc3ccccc3c2)c1[N+](=O)[O-]	-1.94
COCCCNC(=O)CSc1nc2ccc(N3CCOCC3)cc2c(=O)n1CCc1ccccc1	1.32
COc1ccc(-c2noc(-c3ccccc3C(=O)Nc3cccnc3)n2)cc1	-0.217
CCCCn1nnnc1NCc1ccc(C)s1	-0.109
O=C1C2C3C=CC(C4CC34)C2C(=O)N1c1nccs1 (stereo not given)	0.237
CCCc1noc(-c2ccc(-c3ccccc3)cc2)n1	0.0459
c1ccc(Cn2nnc3c(N4CCN(Cc5ccc6c(c5)OCO6)CC4)ncnc32)cc1	0.579
CNC(=O)c1ccc(N(Cc2ccccc2C)S(C)(=O)=O)cc1	0.0583
CC1CCCCN1C(=O)c1cc(Cl)ccc1[N+](=O)[O-] (stereo not given)	-0.372
CCOC(=O)C(/C=C(\C#N)C(=O)OCC)=C(/N)N1CCN(c2ccccc2)CC1	-0.509
COc1ccc(C)cc1NC(=O)COC(=O)c1c(C)noc1C	-0.0848
Cc1cc(C)nc(NC(=O)/C=C/c2ccccc2Cl)c1	-0.301

SMILES	z-score
O=C1NC(c2ccncc2)C(C(=O)c2cccs2)C(O)(C(F)(F)F)N1 (stereo not given)	0.0591
CCOC(=O)C1=C(C)NC2=C(C(=O)c3ccccc32)C1c1cccnc1 (stereo not given)	0.0847
O=C(Cc1ccc(F)cc1)NCCc1ccccc1	0.419
CC1(C)CC(=O)c2sc(N3CCCCC3)nc2C1	-0.222
CCN(CC)CCN1C(=O)c2ccccc2NC1c1cc(OC)c(OC)c(OC)c1 (stereo not given)	0.0754
CCC(C)(C)NC(=O)CN(Cc1ccc2c(c1)OCO2)C(=O)CCC(=O)Nc1ccccn1	-0.0485
O=c1[nH]c2ccc(Cl)cc2c(-c2ccccc2)c1N1CCN(CCO)CC1	0.464
O=C(O)c1ccccc1SCC(=O)N1CCCCC1	0.108
c1ccc(CCc2nc(-c3ccc(-n4cccc4)cc3)no2)cc1	-0.257
Cc1ccc(/C=N/NC(=O)CN2CCN(S(=O)(=O)c3ccc(Br)cc3)CC2)s1	-0.2
O=C(CCC(=O)NNC(=S)Nc1ccccc1)NCc1ccccc1	0.863
O=[N+]([O-])c1ccc(Cl)cc1CNc1ccc(F)c(F)c1	-0.334
NS(=O)(=O)c1ccc(S(=O)(=O)N2CCCC2)cc1	active: 3.11
Cc1ccc(NC(=O)CC2S/C(=N/c3nccs3)N(C)C2=O)cc1C (stereo not given)	0.00123
O=C(CCc1nc2ccccc2[nH]c1=O)OCC(=O)c1cccc2ccccc12	-0.219
O=C1OC(c2ccco2)=N/C1=C\c1ccc(-c2cccc(C(F)(F)F)c2)o1	0.0441
COC(=O)c1ccc(NC(=O)CSc2nnc(-c3ccncc3)n2N)cc1	0.0398
CCn1cc(C(=O)NCc2ccc3c(c2)OCO3)c(=O)c2cc(F)c(N3CCN(C(=O)c4ccco4)CC3)cc21	0.0623
O=C(c1ccc(COc2ccccc2Br)o1)N1N=C(C(F)F)CC1(O)C(F)F (stereo not given)	-0.077
O=C(NCc1ccco1)c1nc2ccccc2s1	0.761
Cc1cc(NC(=O)CSc2nnc(-c3ccco3)o2)no1	0.184
COc1ccc(OC(=O)CCCN2C(=O)c3ccccc3C2=O)cc1	-0.445

SMILES	z-score
COc1cccc(/C=N/NC(=O)C(=O)NCc2ccco2)c1O	-0.247
Cc1ccsc1/C=N/NC(=O)CN1CCN(S(=O)(=O)c2ccc(Br)cc2)CC1	-0.212
COc1ccc(OC)c(C2CC(=O)C(C)C(c3cc(OC)ccc3OC)N2)c1 (stereo not given)	-0.118
COC(=O)COc1cc(C)cc2oc(=O)c(CC(=O)OC)c(C)c12	-0.413
CCOC(=O)N1CCC(NC(=O)CCN2C(=O)COc3ccccc32)CC1	0.755
Cn1c(=O)n(-c2ccccc2)c(=O)c2c3c(sc21)COC(C)(C)C3	-0.531
CCCn1c(C(O)c2ccc(OCC)cc2)nc2ccccc21 (stereo not given)	-0.413
O=C(NCCc1ccc2c(c1)OCCO2)c1cccc(F)c1	-0.00674
CC1=C(C(=O)OCC2CCCO2)C(c2ccc(C)o2)C2=C(CC(c3ccc(N(C)C)cc3)CC2=O)N1 (stereo not given)	-0.22
COC(=O)C1=C(C)N(CCc2ccccc2)C(=O)C1	-0.0388
COc1cc2cc(C(c3nnnn3Cc3ccc(F)cc3)N3CCCCCC3)c(=O)[nH]c2cc1OC (stereo not given)	-0.985
CC/C(C)=C1\SC(N2CCOCC2)=NC1=O	0.503
COc1cccc(C2C(C#N)=C(N)OC(C(C)(C)C)=C2C#N)c1 (stereo not given)	-0.199
CCOc1cc(C(c2c(C)[nH][nH]c2=O)c2c(C)[nH][nH]c2=O)ccc1O	-0.416
O=C(CSc1oc(-c2ccc(F)cc2)nc1S(=O)(=O)c1ccc(F)cc1)NCC1CCCO1 (stereo not given)	-0.0792
N#Cc1ccccc1NC(=O)c1ccccc1OCC(=O)NCc1ccco1	-1.06
CCn1cc(SCC(=O)N2CCOCC2)c2ccccc21	0.00169
COc1cc(CC(=O)NNC(=O)c2cc(C)oc2C)cc(OC)c1OC	0.0792
Cc1ccc(N(Cc2cc3ccccc3[nH]c2=O)S(=O)(=O)c2ccccc2)cc1	-0.384
COc1ccc(N2C(=O)CC(S/C(N)=N/N=C(\C)c3cccs3)C2=O)cc1 (stereo not given)	0.045
C=CCNCc1cccn1-c1sc2c(c1C#N)CCCC2	2.43
COc1cc(CNc2ccc(CNc3ncn[nH]3)cc2)ccc1OCc1ccccc1	-0.026

SMILES	z-score
CC(C)N(CC(N)=O)C(=O)Cc1coc2cc3c(cc12)CCC3	-0.0389
CCc1nn2c(=O)cc(CSc3nc4sc5c(c4c(=O)n3C)CCCC5)nc2s1	-0.264
COCCN(CCOC)Cc1c(C)[nH]c2c(C)c(C)ccc2c1=O	0.275
CC(C)CNS(=O)(=O)c1ccc(OCC(=O)NCC2CCCO2)c(Cl)c1 (stereo not given)	-0.0742
O=C(NC(=S)NC1CCCCCC1)c1cncc(Br)c1	active: 6.87
Cc1ccc2c(COC(=O)C34CC5CC(CC(C5)C3)C4)cc(=O)oc2c1	-0.0436
O=C(COCC(=O)N/N=C/c1ccc(F)cc1)N/N=C/c1ccc(F)cc1	-0.185
CC(C)(C)n1ncc2c(=O)n(CC(=O)Nc3ccccc3)cnc21	0.85
CN(C)/C=C/C(=O)c1ccc(F)cc1	-0.0356
Cc1nc(N2CCC3(CC2)OCCO3)c2nnn(Cc3ccccc3F)c2n1	0.309
COc1ccc(C(C)(C)C)cc1NC(=O)COC(=O)c1cc(SC)ccc1Cl	-0.276
O=C(NCc1cccnc1)c1ccccc1Br	-0.775
CCOc1ccc(NC(=O)CSc2nnc(-c3ccccn3)n2N)cc1	0.287
Cc1cc(NC(=O)CCC(=O)N(CCc2ccccc2)C(C(=O)NC2CCCC2)c2ccco2)no1 (stereo not given)	-0.923
Cc1ccc(NC(=O)CC2NCCNC2=O)cc1 (stereo not given)	-0.155
COC(=O)c1[nH]c2ccc(F)cc2c1NS(=O)(=O)c1ccc(OC)cc1OC	0.0395
CCC(C)n1c(NC(=O)c2ccccc2)c(C#N)c2nc3ccccc3nc21 (stereo not given)	-0.0962
C=CCSc1nnc(-c2ccccc2NC(=O)CC)c(=O)[nH]1	-0.39
O=C(C1CC(c2cccc(Br)c2)=NO1)N1CCc2ccccc2C1 (stereo not given)	-0.791
Cc1ccc(SCc2ccc(C(=O)Nc3cccnc3)cc2)cc1	-0.13
O=C(OCCNC(=O)c1cc2ccccc2oc1=O)c1cccnc1	-0.413
O=C(NCCN1CCN(C(=O)C(c2ccccc2)c2ccccc2)CC1)C(=O)Nc1ccccc1	0.133
